47 cell lines from the supplement of paper PMC4967469 can be followed below.

Compound in the experiment: N#CC[C@H](C1CCCC1)n1cc(-c2ncnc3[nH]ccc23)cn1 [Ruxolitinib]
Description: Viability of human cancer cell lines after 72 h of drug (GDSC screen). As to the method:
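Human cancer cell lines in 384-well plates, medium with 10% serum, drug for 72 h over a 256-fold dose range (nine 2-fold or five 4-fold steps up to the top dose). Adherent lines were fixed and stained with the nucleic acid dye Syto60, suspension lines read with resazurin; signal relative to control wells, capped at 0 and 100%. One two-parameter sigmoid per drug and line, fitted in a mixed model over all curves with the slope shared within a line.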

IC50 is the fitted dose that halves viability relative to control wells, and lower means more sensitive; where the fit passes the top or lowest dose, that dose stands as a limit. AUC sums up the same curve from the lowest dose to the 256-fold higher top dose; it is 1 without any effect and falls as sensitivity rises.

In general, IC50 refers to the concentration at which inhibition is half-maximal. For the cell line “NCI-H1092 (small cell lung carcinoma, suspension, top dose 5.24 µM)”, the AUC came to 0.989 and the concentration for half-maximal inhibition (IC50) is greater than 5.24 µM.
For “CHL-1 (melanoma, adherent, top dose 5.24 µM)”, in that order: 0.987 and greater than 5.24 µM.
For “BICR10 (head and neck, adherent, top dose 5.24 µM)”, in that order: 0.985 and greater than 5.24 µM.
On the same counts, the results for “CAL-120 (breast, adherent, top dose 5.24 µM)” are 0.965 and greater than 5.24 µM.
Regarding “GOTO (neuroblastoma, adherent, top dose 5.24 µM)”, the AUC was found to be 0.98 and the IC50 was greater than 5.24 µM.
For “NCI-H226 (lung squamous cell carcinoma, adherent, top dose 5.24 µM)”, in that order: 0.987 and greater than 5.24 µM.
On the same counts, the results for “SKN (uterus, adherent, top dose 5.24 µM)” are 0.975 and greater than 5.24 µM.
On to “EW-18 (Ewing sarcoma, suspension, top dose 5.24 µM)”, for which the AUC stood at 0.983 and the IC50 was greater than 5.24 µM.
For “COLO-680N (oesophagus, adherent, top dose 5.24 µM)”, in that order: 0.984 and greater than 5.24 µM.
For “KNS-81-FD (glioma, adherent, top dose 5.24 µM)”, in that order: 0.959 and greater than 5.24 µM.
For “LU-134-A (small cell lung carcinoma, suspension, top dose 5.24 µM)”, in that order: 0.985 and greater than 5.24 µM.
For “PL-21 (acute myeloid leukaemia, suspension, top dose 5.24 µM)”, the AUC was determined as 0.933 and the IC50 is greater than 5.24 µM.
With “CAL-27 (head and neck, adherent, top dose 5.24 µM)”, the AUC was found to be 0.967 and the IC50 was greater than 5.24 µM.
On the same counts, the results for “LB996-RCC (kidney, adherent, top dose 5.24 µM)” are 0.983 and greater than 5.24 µM.
Take “IM-95 (stomach, adherent, top dose 5.24 µM)”: the AUC was determined as 0.984 and the concentration for half-maximal inhibition (IC50) was greater than 5.24 µM.
On the same counts, the results for “CHSA8926 (chondrosarcoma, adherent, top dose 5.24 µM)” are 0.976 and greater than 5.24 µM.
On the same counts, the results for “A3-KAW (B-cell lymphoma, suspension, top dose 5.24 µM)” are 0.192 and 0.0518 µM.
On the same counts, the results for “LU-165 (small cell lung carcinoma, suspension, top dose 5.24 µM)” are 0.984 and greater than 5.24 µM.
Take “42-MG-BA (glioma, adherent, top dose 5.24 µM)”: the AUC was determined as 0.984 and the IC50 was greater than 5.24 µM.
For “ESO51 (oesophagus, semi-adherent, top dose 5.24 µM)”, in that order: 0.979 and greater than 5.24 µM.
For “CHP-134 (neuroblastoma, suspension, top dose 5.24 µM)”, in that order: 0.97 and greater than 5.24 µM.
On the same counts, the results for “KARPAS-422 (B-cell lymphoma, suspension, top dose 5.24 µM)” are 0.98 and greater than 5.24 µM.
On to “SNU-81 (large intestine, adherent, top dose 5.24 µM)”, for which the AUC amounted to 0.98 and the IC50 was greater than 5.24 µM.
As for “NMC-G1 (glioma, adherent, top dose 5.24 µM)”, the AUC stood at 0.98 and the IC50 was greater than 5.24 µM.
For “RPMI-2650 (head and neck, adherent, top dose 5.24 µM)”, in that order: 0.984 and greater than 5.24 µM.
For “LS-513 (large intestine, adherent, top dose 5.24 µM)”, in that order: 0.987 and greater than 5.24 µM.
For “HARA (lung squamous cell carcinoma, adherent, top dose 5.24 µM)”, the AUC was 0.951 and the IC50 was greater than 5.24 µM.
On the same counts, the results for “NCI-H187 (small cell lung carcinoma, suspension, top dose 5.24 µM)” are 0.927 and greater than 5.24 µM.
Regarding “NCI-H3122 (lung adenocarcinoma, adherent, top dose 5.24 µM)”, the AUC was determined as 0.951 and the IC50 is greater than 5.24 µM.
In the case of “A427 (non-small cell lung carcinoma, adherent, top dose 5.24 µM)”, the AUC worked out at 0.98 and the IC50 is greater than 5.24 µM.
On the same counts, the results for “LN-229 (glioma, adherent, top dose 5.24 µM)” are 0.988 and greater than 5.24 µM.
For “PC-3 [JPC-3] (lung adenocarcinoma, adherent, top dose 5.24 µM)”, in that order: 0.951 and greater than 5.24 µM.
On the same counts, the results for “NCI-H196 (small cell lung carcinoma, adherent, top dose 5.24 µM)” are 0.962 and greater than 5.24 µM.
For “SCC-25 (head and neck, adherent, top dose 5.24 µM)”, the AUC is 0.984 and the IC50 was greater than 5.24 µM.
For “FLO-1 (oesophagus, adherent, top dose 5.24 µM)”, in that order: 0.973 and greater than 5.24 µM.
On the same counts, the results for “SW1573 (lung adenocarcinoma, adherent, top dose 5.24 µM)” are 0.973 and greater than 5.24 µM.
For “JHU-011 (head and neck, adherent, top dose 5.24 µM)”, in that order: 0.981 and greater than 5.24 µM.
Regarding “HuCCT1 (biliary tract, adherent, top dose 5.24 µM)”, the AUC stood at 0.975 and the IC50 was greater than 5.24 µM.
On to “P30-OHK (lymphoblastic leukaemia, suspension, top dose 5.24 µM)”, for which the AUC was 0.967 and the 50% inhibitory concentration (IC50) is greater than 5.24 µM.
On the same counts, the results for “L-540 (Hodgkin lymphoma, suspension, top dose 5.24 µM)” are 0.99 and greater than 5.24 µM.
On the same counts, the results for “Ca-Ski (cervix, adherent, top dose 5.24 µM)” are 0.979 and greater than 5.24 µM.
On the same counts, the results for “D-247MG (glioma, adherent, top dose 5.24 µM)” are 0.959 and greater than 5.24 µM.
For the cell line “NCI-H1836 (small cell lung carcinoma, suspension, top dose 5.24 µM)”, the AUC was found to be 0.986 and the IC50 is greater than 5.24 µM.
For the cell line “KYAE-1 (oesophagus, suspension, top dose 5.24 µM)”, the AUC came out at 0.954 and the IC50 is greater than 5.24 µM.
On the same counts, the results for “NCI-H1694 (small cell lung carcinoma, suspension, top dose 5.24 µM)” are 0.987 and greater than 5.24 µM.
On the same counts, the results for “NCI-H1869 (lung squamous cell carcinoma, adherent, top dose 5.24 µM)” are 0.976 and greater than 5.24 µM.
For the cell line “WM1552C (melanoma, adherent, top dose 5.24 µM)”, the AUC worked out at 0.987 and the IC50 was greater than 5.24 µM.
